The other results are listed elsewhere or left out.
Columns and labels:
HSkMC = human skeletal muscle cells; experiment: cytotoxicity call (relative viability < 0.9); conditions: 10 µM
HepG2 = experiment: cytotoxicity call (relative viability < 0.9); conditions: 10 µM
S. aureus RN4220 = experiment: growth inhibition call (relative growth <= 0.2); conditions: 50 µM

Row | Compound | cytotoxicity call (HSkMC) | cytotoxicity call (HepG2) | growth inhibition call (S. aureus RN4220)
1 | COc1ccc(S(=O)(=O)Nc2ccc3c(c2)C(=O)N([C@H](C)CO)C[C@@H](C)[C@H](CN(C)C(=O)Nc2ccc(F)cc2)OCCCC[C@H](C)O3)cc1 | inactive | inactive | inactive
2 | Cc1noc(C)c1NC(=O)Nc1ccc2c(c1)C(=O)N([C@@H](C)CO)C[C@@H](C)[C@H](CN(C)S(=O)(=O)c1ccc(Cl)cc1)OCCCC[C@@H](C)O2 | inactive | inactive | inactive
3 | Cn1cc(N2C[C@]3(CCN(S(C)(=O)=O)C3)CC2=O)cn1 | inactive | inactive | inactive
4 | COc1ccc(S(=O)(=O)N(C)C[C@@H]2Oc3ccc(NS(=O)(=O)c4ccc(F)cc4)cc3C(=O)N([C@H](C)CO)C[C@H]2C)cc1 | inactive | inactive | inactive
5 | CC(=O)OCC1=C(C(=O)[O-])N2C(=O)C(NC(=O)Cc3cccs3)C2SC1.[Na+] (stereo not given) | inactive | inactive | active
6 | CNC[C@H]1OCCCC[C@@H](C)Oc2ccc(NS(=O)(=O)c3c(C)noc3C)cc2C(=O)N([C@H](C)CO)C[C@H]1C | inactive | inactive | inactive
7 | COc1ccc(-c2oc3cc(OC)c(OC)c(OC)c3c(=O)c2OC)cc1OC | inactive | active | inactive
8 | COc1ccc(NC(=O)Nc2ccc3c(c2)C(=O)N([C@@H](C)CO)C[C@H](C)[C@@H](CN(C)C(=O)Nc2cccc4ccccc24)O3)cc1 | inactive | inactive | inactive
9 | C[C@H]1CN([C@@H](C)CO)C(=O)c2cccc(NS(C)(=O)=O)c2O[C@H]1CN(C)Cc1ccc(C(F)(F)F)cc1 | inactive | inactive | inactive
10 | O=C(C[C@@H]1C[C@H]2c3cc(NC(=O)C4CCOCC4)ccc3O[C@H]2[C@@H](CO)O1)NCc1ccc(Cl)cc1 | inactive | inactive | inactive
11 | COc1cc(N2CCC(N(C)C)CC2)ccc1Nc1ncc(Cl)c(Nc2ccccc2P(C)(C)=O)n1 | active | active | inactive
12 | C[C@@H]1CN([C@@H](C)CO)C(=O)c2cc(NC(=O)CCC(F)(F)F)ccc2O[C@H]1CN(C)Cc1ccc(Oc2ccccc2)cc1 | inactive | inactive | inactive
13 | CC(C)NC(=O)Nc1ccc2c(c1)C(=O)N([C@H](C)CO)C[C@H](C)[C@@H](CN(C)C(=O)Nc1cccc3ccccc13)OCCCC[C@@H](C)O2 | inactive | inactive | inactive
14 | C[C@H]1CN([C@@H](C)CO)C(=O)Cc2cc(NS(=O)(=O)c3cccs3)ccc2O[C@H]1CN(C)Cc1ccc(Cl)c(Cl)c1 | active | active | inactive
15 | CCCN(C)C[C@H]1OCCCC[C@@H](C)Oc2ccc(NC(=O)Nc3ccc(C(F)(F)F)cc3)cc2C(=O)N([C@H](C)CO)C[C@H]1C | inactive | inactive | inactive
16 | C(=C\[C@@H]1Nc2ccccc2-c2nc3ccccc3n21)/c1ccccc1 | inactive | inactive | inactive
17 | OCc1cccc(CO)c1F | inactive | inactive | inactive
18 | C[C@H](CO)N1C[C@H](C)[C@H](CN(C)C(=O)c2ccccc2)OCCCC[C@H](C)Oc2ccc(NC(=O)CCCCCC(=O)Nc3ccccc3N)cc2C1=O | inactive | inactive | inactive
19 | C[C@@H]1CN([C@H](C)CO)C(=O)Cc2cc(NS(C)(=O)=O)ccc2O[C@H]1CN(C)Cc1ccc(C(F)(F)F)cc1 | inactive | inactive | inactive
20 | C=CCOC(=O)[C@H]1[C@@H]2C(=O)O[C@@H](c3ccccc3)[C@@H](c3ccccc3)N2[C@@H](c2ccc(OCCOC(=O)[C@H]3C[C@H]4C(=O)N[C@@H](CCCC[N+](C)(C)C)C(=O)N4[C@H]3c3cccc(OCCO)c3)cc2)[C@]12C(=O)Nc1ccc(I)cc12 | inactive | inactive | inactive
21 | CCOC(=O)c1c[nH]c(CC(C)=O)nc1=O | inactive | inactive | inactive
22 | C[C@@H]1CN([C@H](C)CO)C(=O)c2cc(NC(=O)c3ccncc3)ccc2O[C@@H]1CN(C)S(=O)(=O)c1cn(C)cn1 | inactive | inactive | inactive
23 | Cc1ccc(-n2nc(C(C)(C)C)cc2NC(=O)Nc2ccc(OCCN3CCOCC3)c3ccccc23)cc1 | active | active | inactive
24 | OCc1ccccc1-c1ccccc1 | inactive | inactive | inactive
25 | C[C@@H]1CN([C@@H](C)CO)C(=O)c2cccc(NC(=O)c3nc4ccccc4s3)c2O[C@@H]1CN(C)Cc1ccc(Oc2ccccc2)cc1 | inactive | inactive | inactive
26 | CS(=O)(=O)Nc1ccc2c(c1)[C@@H]1C[C@H](CC(=O)NCc3ccc(-c4ccccc4)cc3)O[C@@H](CO)[C@@H]1O2 | inactive | inactive | inactive
27 | COc1ccc(NC(=O)N(C)C[C@@H]2OCCCC[C@@H](C)Oc3ccc(NS(=O)(=O)c4ccc(Cl)cc4)cc3C(=O)N([C@@H](C)CO)C[C@@H]2C)cc1 | inactive | inactive | inactive
28 | COc1ccc(S(=O)(=O)N(C)C[C@H]2Oc3ccc(NS(=O)(=O)c4ccccc4)cc3C(=O)N([C@H](C)CO)C[C@@H]2C)cc1 | inactive | inactive | inactive

Row | Compound | cytotoxicity call (HSkMC) | cytotoxicity call (HepG2) | growth inhibition call (S. aureus RN4220)
29 | C[C@@H]1CN([C@@H](C)CO)C(=O)CCCn2nncc2CO[C@@H]1CN(C)Cc1cccc2c1OCCCO2 | inactive | inactive | inactive
30 | O=C(Nc1ccccc1)c1cc2c(c(-c3cccc(-c4ccncc4)c3)n1)[C@@H](CCO)N(CC1CCOCC1)C2 | inactive | inactive | inactive
31 | Cc1ccccc1OC(=O)c1sc2ccccc2c1Cl | inactive | inactive | inactive
32 | C[C@@H]1CN([C@H](C)CO)C(=O)Cc2cc(NC(=O)Cn3cnnn3)ccc2O[C@@H]1CN(C)C(=O)Nc1ccc2c(c1)OCO2 | inactive | inactive | inactive
33 | O=C(C[C@@H]1CC[C@@H]2[C@H](COC[C@@H](O)CN2C(=O)Nc2ccc(C(F)(F)F)cc2)O1)NCCc1ccncc1 | inactive | inactive | active
34 | CC[N+](CC)(CC)CCOc1ccc(/C=C/c2ccccc2)cc1 | inactive | inactive | inactive
35 | Cc1noc(C)c1S(=O)(=O)N(C)C[C@H]1OCCCC[C@H](C)Oc2ccc(NS(=O)(=O)c3cn(C)cn3)cc2C(=O)N([C@@H](C)CO)C[C@@H]1C | inactive | inactive | inactive
36 | C[C@H](CO)N1C[C@H](C)[C@H](CN(C)C(=O)c2cccc(F)c2)Oc2cc(-c3ccncc3)ccc2S1(=O)=O | inactive | inactive | inactive
37 | Cc1ccc(S(=O)(=O)Nc2ccc3c(c2)C(=O)N([C@H](C)CO)C[C@H](C)[C@H](CN(C)S(C)(=O)=O)OCCCC[C@H](C)O3)cc1 | inactive | inactive | inactive
38 | C[C@@H]1CN([C@@H](C)CO)C(=O)c2cc(NC(=O)CCC(F)(F)F)ccc2O[C@@H](C)CCCCO[C@H]1CN(C)C(=O)Nc1ccccc1 | inactive | inactive | inactive
39 | COc1ccc(CN(C)C[C@@H]2OCCCC[C@H](C)Oc3ccc(NS(=O)(=O)c4ccc(F)cc4)cc3C(=O)N([C@H](C)CO)C[C@H]2C)cc1 | inactive | inactive | inactive
40 | C[C@@H]1CCCCO[C@H](CN(C)C(=O)Nc2ccc3c(c2)OCO3)[C@@H](C)CN([C@@H](C)CO)C(=O)c2cc(NS(=O)(=O)c3ccc(F)cc3)ccc2O1 | inactive | inactive | inactive
41 | COc1ccc(OCCN2CCC(C(=O)N[C@@H](c3ccc(F)cc3)c3ccc4ccccc4n3)CC2)cc1 | inactive | active | inactive
42 | COc1cc(-c2coc3cc(OC4OC(CO)C(O)C(O)C4O)c(OC)c(O)c3c2=O)cc(O)c1OC (stereo not given) | inactive | active | inactive
43 | C[C@@H]1CN([C@H](C)CO)C(=O)c2cc(NC(=O)c3ccccc3)ccc2O[C@@H](C)CCCCO[C@@H]1CN(C)C(=O)C1CCCCC1 | inactive | inactive | inactive
44 | C[C@H]1CN([C@@H](C)CO)C(=O)c2cccc(NC(=O)Nc3ccc(C(F)(F)F)cc3)c2O[C@@H]1CN(C)Cc1ccc(C(F)(F)F)cc1 | inactive | active | inactive
45 | COc1ccc2c3c([nH]c2c1)[C@H](CO)N(C[C@]13CN(C1)S(=O)(=O)C)C(=O)c1cnccn1 | inactive | inactive | inactive
46 | COc1ccc(-n2c(C)cc(CN)c2C)cc1 | inactive | inactive | inactive
47 | CO[C@H]1CN(C)C(=O)c2cc(NC(=O)c3ccc(F)cc3)ccc2OC[C@@H](C)N(C(=O)CN(C)C)C[C@@H]1C | inactive | inactive | inactive
48 | COc1ccc(NC(=O)Nc2ccc3c(c2)CC(=O)N([C@H](C)CO)C[C@H](C)[C@H](CN(C)C(=O)Nc2cccc4ccccc24)O3)cc1 | inactive | inactive | inactive
49 | CNCC(O)c1ccc(O)c(O)c1.O=C(O)C(O)C(O)C(=O)O (stereo not given) | inactive | active | inactive
50 | C[C@@H]1CN([C@@H](C)CO)C(=O)CCCn2cc(nn2)CO[C@@H]1CN(C)C(=O)Nc1ccc(N2CCCCC2)cc1 | inactive | inactive | inactive
51 | C[C@@H]1CCCCO[C@@H](CN(C)S(=O)(=O)c2ccccc2)[C@H](C)CN([C@@H](C)CO)C(=O)c2cc(NC(=O)C3CCCCC3)ccc2O1 | inactive | inactive | inactive
52 | C[C@@H]1CN([C@H](C)CO)S(=O)(=O)c2ccc(-c3cccc(C(=O)N(C)C)c3)cc2O[C@@H]1CN(C)C(=O)Cc1ccccn1 | inactive | inactive | inactive
53 | O=C1C[C@]2(c3ccc([N+](=O)[O-])cc3)C(=O)N(C3CC3)c3cc(CO)ccc3[C@H]2N1CC12CC3CC(CC(C3)C1)C2 | inactive | inactive | inactive
54 | C[C@@H]1CN([C@@H](C)CO)C(=O)Cc2cc(NC(=O)Nc3ccc4c(c3)OCO4)ccc2O[C@@H]1CN(C)S(=O)(=O)c1cn(C)cn1 | inactive | inactive | inactive
55 | CC(C)NC(=O)N(C)C[C@@H]1OCCCC[C@H](C)Oc2ccc(NC(=O)C3CCCCC3)cc2C(=O)N([C@H](C)CO)C[C@H]1C | inactive | inactive | inactive
